Laboratory results published in the supplement of paper PMC3334620.
Over roughly 33,000 sequences, “E-score (-0.5 to 0.5)” has its median near -0.04; the highest 2% begin near 0.36. The list shows a part of the results.

The sequences below were run against T1, Hmlalpha2 (UniProt P0CY09) (assay: PBM E-score (8-mer binding enrichment) (E-score (-0.5 to 0.5)); higher = stronger / more preferred TF binding; most listed sequences are background and not binding sites). Conditions: protein concentration: 200 nM; construct: GST-full length.
T1 sequence: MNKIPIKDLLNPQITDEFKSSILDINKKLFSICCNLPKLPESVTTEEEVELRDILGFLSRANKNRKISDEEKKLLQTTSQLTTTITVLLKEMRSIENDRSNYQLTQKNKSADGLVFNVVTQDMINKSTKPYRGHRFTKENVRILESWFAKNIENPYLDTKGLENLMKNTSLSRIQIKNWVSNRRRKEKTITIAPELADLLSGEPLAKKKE
Description: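 Universal 'all 10-mer' protein binding microarrays (Agilent AMADID 015681) probed with GST-tagged S. cerevisiae TFs (full-length or DBD) made by in vitro transcription/translation (PURExpress), about 100-200 nM. Bound TF was detected with fluorescent anti-GST. Each ungapped 8-mer (which stands for itself and its reverse complement) is scored by the PBM enrichment score (E-score), a modified Wilcoxon-Mann-Whitney statistic from -0.5 to +0.5, computed with the Universal PBM Analysis Suite. Scale: above 0.35 generally sequence-specific binding.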

Sequence	PBM E-score
CGACACGC	0.243
ATGATGGA	-0.0342
ATCGATCG	-0.0333
AATAGCTC	-0.145
CTTATGGA	-0.263
ATCAGCGA	-0.0215
GCCCCTCA	-0.306
GGTCATAC	-0.209
AACGTGAA	0.218
CCAATAAC	0.205
CTTACTGC	0.0127
CATACCCC	-0.136
GCGACGTA	0.0408
ACCGCGAA	-0.126
GTTATCAA	0.0753
ACCGGCTG	-0.0917
ACGGAACA	0.00207
CAAGCTTC	-0.0279
CGATCTAG	-0.043
ATGGGCTC	-0.042
ACTCCGAT	-0.194
AGACCTTG	-0.00027
AGTTCTGC	0.0238
AAACCTCC	-0.19
CGCGTACG	0.32

Sequence	PBM E-score
ACTAATAA	0.193
AGACTTCG	-0.117
ACGCCTAA	0.0839
ACCCCCAA	-0.0845
CGTGAGTC	-0.235
CGCCCATC	-0.218
CAACACGC	0.367
GCTACGGA	-0.168
AAACAGCA	0.088
AACAAAGA	0.203
CTGGAGTA	-0.168
CTGTGCGA	0.00027
AAAGCGCG	0.136
GCAATATA	-0.012
ATTTCCGA	-0.11
TGTTTCAA	0.175
CTAGACCC	-0.303
AAGTCTGC	0.00573
AAGCACAC	-0.0253
ATCCCGGC	-0.268
CTATCGGA	-0.0687
CAGGCTGG	-0.182
CTAATCCC	0.0115
CGTGTAAG	0.467
TATGACCA	0.0588

Sequence	PBM E-score
GATTCCAA	-0.0677
ATACTATC	0.0717
GCGTGCCA	-0.128
CCCAGGAC	-0.231
GAAGTGTA	0.0551
CCTCCGTC	-0.172
AATACTAC	0.246
AGTAGACG	0.0433
ACGCTATC	-0.00711
GTAAGGAC	-0.0727
AAGAGCTT	-0.1
GTAACGGA	0.19
GTTTAAAC	0.41
ACAGGACG	0.126
AACTGGAG	-0.319
AGGTCTGC	-0.237
CCGGTACC	-0.272
AACGTATC	0.0379
ATAGAAAC	0.112
CCAGCAGG	-0.22
GTGCGGTA	0.0266
CTTACTCA	-0.0475
AGTAGAGC	-0.041
AGCTCAAT	0.0207
ATAATGAC	0.0211

Sequence	PBM E-score
TGTCCGAA	-0.0413
AGGTTGAG	0.026
AACTTCGC	0.0503
CTGCGCCA	-0.22
ACAGGAGC	0.0627
CTGTTTTC	0.036
AACCTCTA	-0.19
CAGTCGAC	0.0539
ATAGACCC	0.108
AGTCTGTA	0.0937
AGAGTGGC	-0.0809
GGCTCCAA	-0.214
GATGAAGA	-0.0823
ATCGCATC	-0.263
GAGCCCGC	-0.33
CCAAATCA	0.0068
GGGAACTA	0.085
GGACGTAA	0.145
CACGGAGC	0.109
ACCCCCGA	-0.0909
GCATACCA	-0.185
ACCCATGA	-0.153
ACGGATGC	0.0163
TGGATCAA	-0.028
CTTCTGTC	-0.0642

Sequence	PBM E-score
CTCTGACC	-0.259
ACATGTAC	0.412
CGCATTTC	0.0408
CGGGAAAG	-0.244
ACGGTCAT	-0.0696
ATAACGCA	0.225
TAACCACA	0.181
GTAGGTAA	0.119
TGTAAACA	0.461
CATCGCTA	0.0965
CCGGAAAG	-0.316
GGCTAACC	-0.104
GCTCGTCA	-0.0237
ACAGCTAC	0.0986
AAACTAAA	0.0747
GAAGAAAC	0.0429
CTAATGTA	0.262
AAGGATAA	0.0414
GGAAGCGA	-0.175
GCTTGACC	-0.107
ACCGGCTA	0.0209
AAAGGAGA	-0.164
ATGTCCGG	-0.141
AGAAACGC	0.121
AAAGACTC	-0.193

Sequence	PBM E-score
CCATGCCG	0.0296
GTGTTAAA	0.462
ATATTAGA	0.243
GGCAGGTA	-0.258
CCAAGGTA	-0.156
AATGGAGG	-0.219
AGATATAC	0.119
GCGACGGA	-0.215
ACAGGAGG	-0.152
ATAGAGCC	-0.152
ATATCGTA	0.149
GTTAGGTA	0.159
AAGGACAG	-0.149
CTGCGAAC	-0.0978
ACGATAAT	0.106
ATAATTAC	0.357
ACATAATG	0.226
GTCTTCCA	-0.267
CGCTATAG	-0.0998
ATCCGCAG	-0.101
GCACGTAA	0.348
GTAGTAAA	0.237
ACAACTAC	0.225
GTCTTCAC	-0.0998
CTATCAAG	-0.137

Sequence	PBM E-score
GGGGCCTA	-0.31
AAACCCCA	-0.00673
ACGCGCGC	0.306
CTATCAGA	-0.305
CTGTGGTC	-0.0843
AGCATTAA	-0.0186
TGTATTAA	0.413
ACGACCAG	0.043
AGGCTGGG	0.00399
ACCTCTAA	-0.123
CGATATTC	-0.202
AATACATG	0.482
CTGTGATA	-0.0525
ATCCGAAT	0.0965
ATAGACTG	-0.0652
CGAAACTC	-0.242
AAGGATCT	-0.17
CCGGAACG	-0.127
AGCAGGAA	-0.0372
GCAAGAGA	-0.0361
ACCGATTC	-0.224
GCTCGTAC	-0.0377
